# Data reported in article PMC4336329 (PLoS ONE, 2015).
# The whole screen tested about 310,000 compounds, of which about 14,000 (4.5%) showed an effect of 50% or more. The effect is printed as a negative number. The list shows a part of the results.
# Target: human ether-à-go-go-related gene (hERG) potassium channel (human, UniProt Q12809)
# Assay: primary screen, population patch clamp on CHO cells stably expressing hERG
# 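Also: peak tail current of the secondary pulse compared with the same well before compound.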
# Chain of human ether-à-go-go-related gene (hERG) potassium channel (Q12809 whole entry, looked up): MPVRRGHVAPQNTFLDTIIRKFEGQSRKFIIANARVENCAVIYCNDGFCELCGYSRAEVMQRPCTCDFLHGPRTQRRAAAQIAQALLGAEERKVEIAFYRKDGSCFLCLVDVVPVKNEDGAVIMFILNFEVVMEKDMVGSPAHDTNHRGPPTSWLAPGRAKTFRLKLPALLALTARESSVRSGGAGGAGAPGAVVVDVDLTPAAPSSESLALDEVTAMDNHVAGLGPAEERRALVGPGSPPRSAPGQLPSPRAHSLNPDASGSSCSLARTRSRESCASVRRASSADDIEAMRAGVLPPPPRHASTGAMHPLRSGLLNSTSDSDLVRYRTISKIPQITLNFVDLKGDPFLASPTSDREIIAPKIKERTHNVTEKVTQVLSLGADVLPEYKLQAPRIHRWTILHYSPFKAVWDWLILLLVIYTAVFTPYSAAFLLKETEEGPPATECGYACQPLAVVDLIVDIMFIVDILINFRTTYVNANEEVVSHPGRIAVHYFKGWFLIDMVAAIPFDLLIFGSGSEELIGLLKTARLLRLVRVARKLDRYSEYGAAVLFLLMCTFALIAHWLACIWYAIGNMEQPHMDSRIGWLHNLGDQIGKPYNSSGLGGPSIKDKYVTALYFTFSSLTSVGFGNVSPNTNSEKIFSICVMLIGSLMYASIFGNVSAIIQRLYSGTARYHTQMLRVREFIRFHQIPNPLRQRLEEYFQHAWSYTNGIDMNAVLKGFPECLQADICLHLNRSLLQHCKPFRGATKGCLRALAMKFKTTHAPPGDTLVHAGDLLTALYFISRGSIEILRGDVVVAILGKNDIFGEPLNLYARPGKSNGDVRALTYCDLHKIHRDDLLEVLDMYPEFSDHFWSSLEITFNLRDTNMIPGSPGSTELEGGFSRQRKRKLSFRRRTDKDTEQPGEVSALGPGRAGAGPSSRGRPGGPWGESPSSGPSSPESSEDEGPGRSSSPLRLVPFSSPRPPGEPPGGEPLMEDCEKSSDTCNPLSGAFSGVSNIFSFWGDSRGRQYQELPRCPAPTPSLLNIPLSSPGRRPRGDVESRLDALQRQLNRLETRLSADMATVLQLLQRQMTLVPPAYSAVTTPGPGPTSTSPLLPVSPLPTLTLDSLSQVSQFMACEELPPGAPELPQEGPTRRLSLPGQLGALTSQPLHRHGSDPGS
row,SMILES,"hERG current change (%, negative = inhibition) at 10uM"
1,O=C1[C@@H]2[C@H](Cc3ccc(O)cc3)N[C@]3(C(=O)Nc4ccccc43)[C@@H]2C(=O)N1c1ccc(F)cc1,-7.41%
2,NC(=O)C1CCN(CCS(=O)(=O)c2ccc(Cl)cc2)CC1,5.76%
3,CC1(C)Cc2cccc(OCC(=O)N3CCN(c4ccccc4F)CC3)c2O1,-22.4%
4,COc1ccc(C(=O)OC(C)CN2CCN(C)CC2)cc1OC.Cl (stereo not drawn),17%
5,COc1nc(OCCNC(C)=O)nc(N(C)C)n1,0.00028%
6,COc1ccc(Cc2nnc(SCc3c(C)noc3C)n2C2CCCCC2)cc1OC,-10.7%
7,O=C(Nc1ccccc1C(=O)N1CCOCC1)c1ccc(F)cc1,19.9%
8,O=C(N/N=C/C(Br)=C\c1ccccc1)c1n[nH]c2c1CCC2,-18.1%
9,Cc1ccc(S(=O)(=O)C2(C(=O)Nc3cccc(F)c3)CC2)cc1,0.141%
10,O=C(c1ccc(N2CCC3(CC2)OCCO3)c([N+](=O)[O-])c1)N1CCOCC1,1.16%
11,CC1Cc2cc(S(=O)(=O)N3CCC(C(=O)N(C)Cc4ccccc4)CC3)ccc2N1C(=O)C1CC1 (stereo not drawn),2.78%
12,COc1cc(NC(=O)c2cccs2)ccc1NC(=O)c1cc2ccccc2o1,28.6%
13,O=C1CCCc2ccccc2N1Cc1ccc(Cl)cc1,-19%
14,Cc1cc(C(F)(F)F)nn1CC(=O)N1CCCC1,-5.53%
15,COc1cccc2sc3ccc(C#Cc4ccc(N)cc4)cc3c(=O)c12,5.83%
16,O=C(NC(=O)c1ccccc1N1CCCCC1)Nc1ccc(Br)cc1,16.2%
17,Cn1c(O)c(C=NC2CCCCCC2)c(=O)[nH]c1=S,8.07%
18,O=C(c1cn(-c2ccccc2)nc1-c1cccnc1)N1CCCCC1,-13.7%
19,O=S(=O)(Nc1cccnc1)c1cccc(C(F)(F)F)c1,-2.26%

row,SMILES,"hERG current change (%, negative = inhibition) at 10uM"
1,Cc1ccc(NC(=O)C2CCCN(C(=O)c3ccc(Cl)cc3)C2)cc1C (stereo not drawn),-19.6%
2,CCc1ccc(C(C)NC(=O)c2cc(C)oc2C)cc1 (stereo not drawn),-3.21%
3,O=C(NNC(=S)NC(=O)c1cccs1)c1cccnc1,22.6%
4,COC(=O)NC1CCC(CC2CCC(NC(=O)OC)CC2)CC1 (stereo not drawn),21.3%
5,CCOC(=O)C1(Cc2ccccc2)CCCN(C(=O)c2cnn(CC)c2)C1 (stereo not drawn),10.1%
6,O=C(NCc1ccc(F)cc1)c1cccnc1,9.37%
7,COC(=O)CN1C(=O)[C@H]2[C@@H](/C=C/c3ccccc3)N3C(=O)CN(CCO)C(=O)[C@@]3(Cc3ccccc3)[C@H]2C1=O,-2.36%
8,COc1cc(S(=O)(=O)n2ccc(C)n2)ccc1Cl,-3.62%
9,C=CCn1c(C)cc(C2=NNC(=NC(C)(C)C)SC2)c1C,-23.9%
10,COCCN(C(=O)COC(=O)/C=C/c1nc2ccccc2s1)c1c(N)n(Cc2ccccc2)c(=O)[nH]c1=O,9.55%
11,COc1ccc(C(=O)CSc2nnc(CN3CCCC3)n2-c2ccc(F)cc2)c(OC)c1,-23%
12,COC(=O)c1ccccc1NC(=O)CCc1ccccc1,-9.05%
13,O=C(NC1CC1)c1ccc(C2SCC(=O)N2Cc2ccccc2)cc1 (stereo not drawn),-11.7%
14,COc1ccc(C2C(C(C)=O)=C(O)C(=O)N2CCc2c[nH]c3ccccc23)cc1 (stereo not drawn),13.7%
15,O=C(Nc1cccc(S(=O)(=O)N2CCCCC2)c1)c1ccco1,-12.3%
16,Cn1c2ccccc2c2cc(C(=O)NNC(=O)CCl)sc21,-25.5%
17,O=C(CCC(=O)N(CC(=O)NC1CCCC1)Cc1ccccc1)Nc1nccs1,13.6%
18,N#Cc1c(N)nc2c(c1-c1cccs1)CCCC2,8.17%
19,CCc1ccc(NC(=O)CCC(=O)c2ccccc2)cc1,8.35%

row,SMILES,"hERG current change (%, negative = inhibition) at 10uM"
1,c1ccc(C2CC3CC(c4ccccc4)N2O3)cc1 (stereo not drawn),13.2%
2,C/C(CC(=O)Nc1ccc2c(c1)OCCO2)=N\NC(=O)COc1ccc(Cl)c(C)c1,-9.98%
3,O=C(NC12CC3CC(CC(C3)C1)C2)N(Cc1ccccc1)Cc1ccncc1,-49.7%
4,CC(=O)c1cccc(NC(=O)CC(C)n2ccnc2)c1 (stereo not drawn),19.2%
5,O=C1CCCN1c1ccc(S(=O)(=O)NCCOc2ccccc2)cc1,3.7%
6,CCOC(=O)c1ccc(NC(=O)c2ccc(CN3CCOCC3)cc2)cc1,1.26%
7,O=C(CSc1n[nH]c(-c2ccccc2)n1)Nc1ccc(Br)cn1,5.45%
8,COC(=O)c1ccc(CSc2nnc3sc4ccccc4n23)o1,-7.51%
9,Cn1nc(C(=O)Nc2ccc(S(=O)(=O)N3CCCCC3)cc2)c2ccccc2c1=O,2.33%
10,Cl.NCCCCCC(=O)N/N=C/c1ccc2nccnc2c1,13.6%
11,N#CCCN(Cc1cccnc1)C(=S)NCc1ccco1,30.7%
12,O=C(c1cc(-c2ccccc2)nn1-c1ccccc1)N1CCN(S(=O)(=O)c2c(F)cccc2F)CC1,-32.1%
13,O=C(CSc1n[nH]c(-c2cccnc2)n1)Nc1ccc(Cl)cc1,3.82%
14,CCc1ccc(NC(=O)C(C)OC(=O)c2cccc(S(=O)(=O)N3CCc4ccccc4C3)c2)cc1 (stereo not drawn),-6.6%
15,COc1cccc2cc(C(=O)NCc3ccccc3)c(=N)oc12,-1.51%
16,Cc1nnc(SCc2ccc(Cl)cc2)n1CC1CCCO1 (stereo not drawn),-3.26%
17,CC1CCCN(c2oc(-c3cccc4ccccc34)nc2C#N)C1 (stereo not drawn),8.15%
18,CC(C)c1ccc(OCC(=O)N2CCCCCC2)c(Br)c1,-20.7%
19,COc1cc(NC(=O)COC(=O)CNC(=O)c2ccc(Cl)cc2)c(C)cc1[N+](=O)[O-],-14.1%
